Among the data in patent US11247989B2 (priority 2017, dated 2022) are IC50 values, retold here.

In the test the test system is MYC. Nature of the test: cells. Conditions: Homo sapiens, MV4-11, 4 h, read-out: Myc IC50 (μM).
In general, IC50 refers to the concentration needed to halve the response being measured. Turning to `CNC(=O)N1CCc2c(c(-n3c(C)cc4cc(-c5cnn(C)c5)ncc43)nn2C2CCOCC2)C1` [Example 40, N-methyl-3-(2-methyl-5-(1-methyl-1H-pyrazol-4-yl)-1H-pyrrolo[2,3-c]pyridin-1-yl)-1-(tetrahydro-2H-pyran-4-yl)-6,7-dihydro-1H-pyrazolo[4,3-c]pyridine-5(4H)-carboxamide], the IC50 is 0.727 µM.

In the case of `CNC(=O)N1CCc2c(c(-c3cccc4cc(-c5cnc(C)s5)ncc34)nn2C2CC[S+]([O-])CC2)C1` (stereo not shown) [Example 45, N-methyl-3-(3-(2-methylthiazol-5-yl)isoquinolin-8-yl)-1-(1-oxidotetrahydro-2H-thiopyran-4-yl)-6,7-dihydro-1H-pyrazolo[4,3-c]pyridine-5(4H)-carboxamide], the concentration for half-maximal inhibition (IC50) stood at 0.481 µM.

As for `CC(=O)N1CCc2c(c(-c3cccc4c3CC(=O)N(C3CCC3)C4)nn2C2CCOCC2)C1` [Example 175], the IC50 amounted to 0.122 µM.

In the case of `COc1ccc(-c2nc3cccc(-c4nn(C5CCOCC5)c5c4CN(C(C)=O)CC5)c3o2)cc1` [Example 159], the IC50 turned out to be 1.58 µM.

With `CC(=O)N1CCc2c(c(-c3cccc4cc(N5CCC(C(F)F)C5)ncc34)nn2C2CCOCC2)C1` (stereo not shown) [Example 117], the IC50 amounted to 1.51 µM.

As for `CC(=O)N1CCc2c(c(-c3cccc4cc(-c5cnn(C)c5)ncc34)cn2C2CCOCC2)C1` [Example 53, 1-(3-(3-(1-methyl-1H-pyrazol-4-yl)isoquinolin-8-yl)-1-(tetrahydro-2H-pyran-4-yl)-1,4,6,7-tetrahydro-5H-pyrrolo[3,2-c]pyridin-5-yl)ethan-1-one], the IC50 turned out to be 0.052 µM.

Take `CC(=O)N1CCc2c(c(-c3c(C)ccc4cc(-c5cnn(C)c5)ncc34)nn2C2CCOCC2)C1` [Example 84]: the IC50 worked out at 8.87 µM.

With `CNC(=O)c1ccc(-c2cc3cccc(-c4nn(C5CCOCC5)c5c4CN(C(=O)NC)CC5)c3cn2)cn1` [Example 92], the IC50 came out at 0.00735 µM.

Consider `CC(=O)N1CCc2c(c(-c3cccc4c3CC(=O)N(c3cnn(C)c3)C4)nn2C2CCOCC2)C1` [Example 101], for which the IC50 was 0.33 µM.

For `CC(=O)N1CCc2c(c(-c3cc(Cl)cc4cc(-c5cnn(C)c5)ncc34)nn2C2CCOCC2)C1` [Example 30, 1-(3-(6-chloro-3-(1-methyl-1H-pyrazol-4-yl)isoquinolin-8-yl)-1-(tetrahydro-2H-pyran-4-yl)-6,7-dihydro-1H-pyrazolo[4,3-c]pyridin-5 (4H)-yl)ethanone], the IC50 was found to be 0.198 µM.

With `CC(=O)N1CCc2c(c(-c3cccc4cc(N5CCC(F)C5)ncc34)nn2C2CCOCC2)C1` (stereo not shown) [Example 115], the IC50 stood at 0.942 µM.

Take `CNC(=O)N1CCc2c(N3CCOCC3)nn(-c3cccc4cc(-c5cnn(C)c5)ncc34)c2C1` [Example 48, N-methyl-1-(3-(1-methyl-1H-pyrazol-4-yl)isoquinolin-8-yl)-3-morpholino-4,5-dihydro-1H-pyrazolo[3,4-c]pyridine-6(7H)-carboxamide]: the IC50 was determined as 0.568 µM.

For `CNC(=O)N1CCc2c(c(-c3cccc4cc(-c5cnc(C)s5)ncc34)nn2C2CCN(C(C)=O)CC2)C1` [Example 46, 1-(1-acetylpiperidin-4-yl)-N-methyl-3-(3-(2-methylthiazol-5-yl)isoquinolin-8-yl)-6,7-dihydro-1H-pyrazolo[4,3-c]pyridine-5(4H)-carboxamide], the IC50 came to 0.00903 µM.

Take `COc1ccc(-c2nc3c(-c4nn(C5CCOCC5)c5c4CN(C(C)=O)CC5)cccc3o2)cc1` [Example 21, 1-(3-(2-(4-methoxyphenyl)benzo[d]oxazol-4-yl)-1-(tetrahydro-2H-pyran-4-yl)-1,4,6,7-tetrahydro-5H-pyrazolo[4,3-c]pyridin-5-yl)ethan-1-one]: the IC50 was found to be 6.16 µM.

As to `CNC(=O)N1CCc2c(c(-c3cccc4c3CCN(c3cnn(C)c3)C4)nn2C2CCOCC2)C1` [Example 39, N-methyl-3-(2-(1-methyl-1H-pyrazol-4-yl)-1,2,3,4-tetrahydroisoquinolin-5-yl)-1-(tetrahydro-2H-pyran-4-yl)-6,7-dihydro-1H-pyrazolo[4,3-c]pyridine-5(4H)-carboxamide], the IC50 was 0.617 µM.

With `CC(=O)N1CCc2c(c(-c3cccc4cc(N5CCC(C)(C)C5)ncc34)nn2C2CCOCC2)C1` [Example 121], the IC50 came out at 1.12 µM.

Regarding `CC(=O)N1CCc2c(c(-c3cccc4cc(N5CC=CC5)ncc34)nn2C2CCOCC2)C1` [Example 124], the IC50 is 0.491 µM.

Regarding `CC(=O)N1CCc2c(c(-c3cccc4c(C)c(-c5cnn(C)c5)ncc34)nn2C2CCOCC2)C1` [Example 33, 1-(3-(4-methyl-3-(1-methyl-1H-pyrazol-4-yl)isoquinolin-8-yl)-1-(tetrahydro-2H-pyran-4-yl)-6,7-dihydro-1H-pyrazolo[4,3-c]pyridin-5(4H)-yl)ethanone], the IC50 was 0.0988 µM.

For the compound `CNC(=O)N1CCc2c(c(-c3ccc(C)c4cc(-c5cnn(C)c5)ncc34)nn2C2CCOCC2)C1` [Example 10, N-methyl-3-(5-methyl-3-(1-methyl-1H-pyrazol-4-yl)isoquinolin-8-yl)-1-(tetrahydro-2H-pyran-4-yl)-6,7-dihydro-1H-pyrazolo[4,3-c]pyridine-5(4H)-carboxamide], the IC50 stood at 0.0153 µM.

As for `CC(=O)N1CCc2c(c(-c3cccc4nc(-c5cccnc5)oc34)nn2C2CCOCC2)C1` [Example 158], the IC50 was determined as 5.32 µM.

As to `CNC(=O)N1CCc2c(c(-c3c(F)ccc4cc(-c5cnn(C)c5)ncc34)nn2C2CCOCC2)C1` [Example 91], the IC50 amounted to 0.0283 µM.

For `CNC(=O)N1CCc2c(c(-c3cccc4c3CC(=O)N(c3cnn(C)c3)C4)nn2C2CCOCC2)C1` [Example 37, N-methyl-3-(2-(1-methyl-1H-pyrazol-4-yl)-3-oxo-1,2,3,4-tetrahydroisoquinolin-5-yl)-1-(tetrahydro-2H-pyran-4-yl)-6,7-dihydro-1H-pyrazolo[4,3-c]pyridine-5(4H)-carboxamide], the IC50 came out at 0.164 µM.

Take `CC(=O)N1CCc2c(c(-c3cccc4cc(N5CCC(C#N)C5)ncc34)nn2C2CCOCC2)C1` (stereo not shown) [Example 126]: the IC50 amounted to 0.374 µM.

For the compound `CC(=O)N1CCc2c(c(-c3cccc4cc(N5CCCC5(C)C)ncc34)nn2C2CCOCC2)C1` [Example 123], the IC50 was 2.49 µM.

As for `COc1ccc(-c2ccc3ccn(-c4nn(C5CCOCC5)c5c4CN(C(C)=O)CC5)c3c2)cc1` [Example 19, 1-(3-(6-(4-methoxyphenyl)-1H-indol-1-yl)-1-(tetrahydro-2H-pyran-4-yl)-1,4,6,7-tetrahydro-5H-pyrazolo[4,3-c]pyridin-5-yl)ethan-1-one], the IC50 is 1.09 µM.

Consider `CNC(=O)N1CCc2c(c(-c3cccc4c(C)c(-c5cnn(C)c5)ncc34)nn2C2CCOCC2)C1` [Example 34, N-methyl-3-(4-methyl-3-(1-methyl-1H-pyrazol-4-yl)isoquinolin-8-yl)-1-(tetrahydro-2H-pyran-4-yl)-6,7-dihydro-1H-pyrazolo[4,3-c]pyridine-5(4H)-carboxamide], for which the IC50 amounted to 0.0592 µM.

Turning to `CC(=O)N1CCc2c(c(-c3cccc4cc(N5CCC[C@H]5C)ncc34)nn2C2CCOCC2)C1` [Example 113], the IC50 was determined as 0.863 µM.

On to `CC(=O)N1CCc2c(c(-c3cc(C)cc4cc(-c5cnn(C)c5)ncc34)nn2C2CCOCC2)C1` [Example 83], for which the IC50 amounted to 0.0662 µM.
